The source of these data is PubChem BioAssay AID463173 (ICCB-Longwood Screening Facility, Harvard Medical School, 2010).

In all, about 52,000 compounds went through this assay and about 4,300 (8.3%) were called active. Rule as the data show it: active = survival mostly below about 52% (no sharp cut-off); inactive = mostly above about 56%. The list shows a part of the results.

This assay relates to DeltatarO mutant. In words: S. aureus survival, RN4220 and DeltatarO strains – OD600, teichoic acid synthesis inhibitors, primary screen (AID 463173). To be noted: S. aureus RN4220 wild type/DeltatarO growth, OD600, 18 h, active compounds read low, screened at 18.75 µg/mL (by protocol).
`COc1ccc(NC(=O)N(C(C)C)C2CCN(C(C)=O)CC2)c(OC)c1`: the survival was active: -2%.
The figure for `COC(=O)Cc1c(C)c2cc3c(c(C)c2oc1=O)OCN(CCc1ccc(F)cc1)C3` is inactive: 44%; for `COc1cccc(NC(=O)CN2C(=O)COc3ccc(S(=O)(=O)N4CCCCCC4)cc32)c1` it is inactive: 74%.
The figure for `O=C1C2=C(Nc3ccccc3SC2c2ccc(Cl)c(Cl)c2)c2ccccc21` (stereo not given) is active: 22%; for `O=C(NCC1COc2ccccc2O1)c1cn(Cc2ccc(F)cc2)nn1` (stereo not given) it is inactive: 80%.
For `CCOC(=O)c1cc(S(=O)(=O)Nc2ccc(OC(F)(F)F)cc2)[nH]n1`, the survival is inactive: 66%.
With `CCC1CN(C(=O)N2CCC(C(=O)NCc3cc(OC)ccc3OC)CC2)c2ccccc2O1` (stereo not given), the survival was inactive: 71%.
In the case of `COc1ccc(NC(=O)CSc2nc(-c3ccc(OC)cc3)cc(=O)[nH]2)cc1`, the survival was inactive: 139%.
As to `Cn1c(C(=O)NCc2ccc(F)cc2)cc2cc(S(=O)(=O)N3CCCCC3)ccc21`, the survival is inactive: 126%.
The figure for `COc1cc(OC)c(NC(=O)c2cc3c(s2)-c2ccc(Cl)cc2SC3)cc1Cl` is inactive: 89%; for `Cc1cccc(N2CCN(C(=O)C3CCN(Cc4nc(-c5ccc(Cl)cc5)oc4C)CC3)CC2)c1C` it is inactive: 60%.
The figure for `Cc1nonc1OCC(C)(N)COc1nonc1C` is inactive: 96%; for `CCc1nn2c(-c3ccco3)ccnc2c1-c1ccccc1` it is inactive: 84%; for `COc1ccc(C)cc1S(=O)(=O)Nc1cccc(-c2ccc(N3CCC(C)CC3)nn2)c1` it is active: -2%.
The figure for `N#CCN(CC#N)C(=O)C1c2ccccc2Oc2ccccc21` is inactive: 89%.
As to `Cc1ccc(CNC(=O)c2cc(C3CC3)nc3c2c(C)nn3-c2cccc(Cl)c2C)cc1`, the survival was inactive: 107%.
The figure for `N#CC(C#N)=C1c2ccccc2-c2nc(C#N)c(C#N)nc21` is active: 4%; for `CCCN(CCC)C(=O)c1c[nH]c2ccc(S(=O)(=O)Nc3cc(C)cc(C)c3)cc2c1=O` it is inactive: 80%; for `Cc1ccc(NC(=O)c2nc(S(=O)(=O)Cc3cccc(C)c3)ncc2Cl)cc1` it is active: -3%.
The figure for `Cc1ccc(N2C(=O)c3oc4cc(C)c(C)cc4c(=O)c3C2c2cccc(O)c2)nc1` (stereo not given) is inactive: 84%; for `O=C(NCc1ccccc1Cl)c1cnc(N2CCCCC2)c2ccccc12` it is inactive: 102%.
The figure for `CCN(C(=O)Cn1c(SCC(=O)NCc2ccccc2)nc2ccccc21)c1cccc(C)c1` is inactive: 65%.
Turning to `COC(=O)c1cc(S(N)(=O)=O)c(C)o1`, the survival is inactive: 72%.
Take `COc1ccc(-c2cc3ccc(O)c(CN4CCN(CCO)CC4)c3oc2=O)cc1OC`: the survival is inactive: 67%.
The figure for `O=C(Nc1cccc(Cl)c1Cl)c1cc2nc(-c3ccc4c(c3)OCO4)cc(C(F)(F)F)n2n1` is inactive: 96%.
